# Reference: publication PMC4336329 (PLoS ONE, 2015)
# About 14,000 (4.5%) of roughly 310,000 compounds showed an effect of 50% or more. Effects have a minus sign here. The list shows a part of the results.
# Target: human ether-à-go-go-related gene (hERG) potassium channel (human, UniProt Q12809)
# Test: primary screen, population patch clamp on CHO cells stably expressing hERG
# 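Note: peak tail current of the secondary pulse compared with the same well before compound.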
# Sequence of human ether-à-go-go-related gene (hERG) potassium channel (Q12809 whole entry, looked up): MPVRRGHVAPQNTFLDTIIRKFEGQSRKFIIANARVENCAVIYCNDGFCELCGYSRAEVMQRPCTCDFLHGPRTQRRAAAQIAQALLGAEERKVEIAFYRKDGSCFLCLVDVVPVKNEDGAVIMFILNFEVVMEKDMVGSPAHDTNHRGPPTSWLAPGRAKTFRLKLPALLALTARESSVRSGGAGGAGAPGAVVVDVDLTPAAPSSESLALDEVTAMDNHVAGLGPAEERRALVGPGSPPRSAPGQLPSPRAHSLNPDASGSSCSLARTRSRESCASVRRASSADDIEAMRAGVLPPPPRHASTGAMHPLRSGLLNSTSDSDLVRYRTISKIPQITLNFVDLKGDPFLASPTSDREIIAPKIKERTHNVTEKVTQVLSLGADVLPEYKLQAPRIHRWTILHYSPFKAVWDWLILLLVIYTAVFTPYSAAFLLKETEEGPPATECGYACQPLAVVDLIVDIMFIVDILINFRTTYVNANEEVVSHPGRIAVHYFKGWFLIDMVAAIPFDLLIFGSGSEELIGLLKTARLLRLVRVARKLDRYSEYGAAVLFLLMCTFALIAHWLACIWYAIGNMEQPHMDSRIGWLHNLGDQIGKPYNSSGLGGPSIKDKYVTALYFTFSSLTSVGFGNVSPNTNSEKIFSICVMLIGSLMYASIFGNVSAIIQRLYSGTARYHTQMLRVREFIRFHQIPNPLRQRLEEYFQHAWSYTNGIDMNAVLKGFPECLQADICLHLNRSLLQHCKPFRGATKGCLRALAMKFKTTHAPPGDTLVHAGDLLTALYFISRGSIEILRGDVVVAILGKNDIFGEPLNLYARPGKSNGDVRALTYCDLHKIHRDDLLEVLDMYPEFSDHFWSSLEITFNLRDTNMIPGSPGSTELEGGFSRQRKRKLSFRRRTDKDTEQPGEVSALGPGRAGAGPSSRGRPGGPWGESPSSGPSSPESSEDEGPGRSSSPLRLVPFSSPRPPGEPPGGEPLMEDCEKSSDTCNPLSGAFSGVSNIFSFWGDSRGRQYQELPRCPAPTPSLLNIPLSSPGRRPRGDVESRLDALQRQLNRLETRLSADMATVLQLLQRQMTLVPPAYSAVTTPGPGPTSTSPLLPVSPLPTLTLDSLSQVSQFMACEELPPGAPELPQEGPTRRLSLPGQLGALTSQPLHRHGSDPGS
row,Compound,"hERG current change (%, negative = inhibition) at 10uM [%]"
1,O=C1CCCC(=NCc2ccco2)C1,1.15
2,CC(Oc1ccccc1)C(=O)N1CCC2(CC1)Oc1ccc(F)cc1C(=O)C21CC(c2ccc(Cl)cc2)=NO1 (stereo not drawn),14
3,CCc1cc(C(=O)OC)c(NC(=O)c2cc(Br)cs2)s1,-2.11
4,CCOC(=O)c1ccc(NC(=O)NCc2ccccc2)cc1,-9.51
5,CO/N=C/C(=N\Nc1cc(OC)cc(OC)c1)C(=O)c1ccccc1,22
6,COC(=O)C1=C(c2ccccc2OCc2ccccc2)C[C@@H]2CC[C@H]1N2C(=O)NCc1ccc(C(C)(C)C)cc1,8.59
7,CN1CCc2c(sc(NC(=O)C3CCCCC3)c2C(N)=O)C1.Cl,2.22
8,CC(Oc1ccc(Br)cc1Br)C(=O)NC1CCCC1 (stereo not drawn),16.2
9,CC(NC(=O)c1cc(S(=O)(=O)N2CCOCC2)cn1C)c1ccccc1 (stereo not drawn),-5.42
10,Cc1c(NC(=O)CC(O)(C(F)(F)F)C(F)(F)F)c(=O)n(-c2ccccc2)n1C,8.65
11,COc1ccc(/C=C/C(=O)Oc2cccc(/C=N/NC(=O)Cc3ccc(Br)cc3)c2)cc1,-0.724
12,CCOC(=O)c1c(-c2ccc(OC)cc2)csc1NC(=O)CCN1CCOCC1,-53.2
13,O=C(CCc1nc2ccccc2c(=O)[nH]1)OCC(=O)c1cccc(Cl)c1,-5.06
14,O=C(CCN1N=C(c2ccccc2)CCC1=O)NC1CCCC1,12.1
15,O=C(Cc1ccccc1F)c1ccc(O)cc1O,3.53
16,CC(Sc1nnc2ccccn12)C(=O)N1CCc2ccccc2C1 (stereo not drawn),-4.77
17,Cc1csc(=O)n1CC(=O)OCC(=O)c1c(N)n(CC(C)C)c(=O)n(C)c1=O,-10.7
18,COc1cc(-c2ccc(N)c(OC)c2)ccc1N,4.89
19,O=S(=O)(Nc1ccc(F)cc1Cl)c1ccc(-c2cnc(C3CC3)o2)cc1,-0.162
20,COC(=O)c1ccc(N(CC(=O)NC2CCCC2)C(=O)c2ccc(C)s2)cc1,-10.3
21,CN(C)C(CNC(=O)CNC(=O)Cc1cccc2ccccc12)c1ccccc1 (stereo not drawn),-12.4
22,CCOC(=O)CCC(=O)O[C@H]1[C@H](O[C@@H]2[C@@H](C)[C@H](O[C@H]3C[C@@](C)(OC)[C@@H](O)[C@H](C)O3)[C@@H](C)C(=O)O[C@H](CC)[C@@](C)(O)[C@H](O)[C@@H](C)C(=O)[C@H](C)C[C@@]2(C)O)O[C@H](C)C[C@@H]1N(C)C,-3.25
23,Cc1ccc(-c2nc(CN3CCCCC3c3cccc(F)c3)c(C)o2)o1 (stereo not drawn),44.7
24,CN(C)c1ccc(/C=N/NC(=O)c2ccccc2O)o1,11
25,CCOc1ccc2nc(N/C(N)=N/C(=S)Nc3cccc(C)c3)nc(C)c2c1,7.56
26,CCN(CC)C(=O)C(=O)Nc1cc(C(F)(F)F)ccc1Cl,-3.18
27,COc1ccc(NC(=S)NCc2ccc(F)cc2)cc1,-0.243

row,Compound,"hERG current change (%, negative = inhibition) at 10uM [%]"
1,Cc1ccc(OCC(=O)N2CCN(CC3CC4C=CC3C4)CC2)cc1.O=C(O)C(=O)O (stereo not drawn),-24.3
2,O=C(CCc1nnc(CCCc2ccccc2)o1)N1CCCCCC1,26
3,C[C@@H](NC(=O)c1nc[nH]c1C(=O)N[C@H](C)c1ccccc1)c1ccccc1,27.3
4,CC(NC(=O)c1cc(COc2c(F)cccc2F)on1)c1cnn(-c2ccccc2)c1 (stereo not drawn),11.7
5,CCOc1ccc(S(=O)(=O)Nc2ccccc2C(=O)N2CCCC2)cc1,1.41
6,Cc1ccc(CSCc2ccc(C(=O)NC3CC3)o2)cc1,-5.31
7,Oc1cc2c(cc1CN1CCN(c3cccc(C(F)(F)F)c3)CC1)CCC2,6.3
8,COC(=O)c1ccccc1NC(=O)C(C)n1nc(C)c2c(C)n(-c3ccccc3)nc2c1=O (stereo not drawn),-50
9,O=C1[C@@H]2C(Cc3ccc(O)cc3)NC3(C(=O)Nc4ccc(F)cc43)[C@@H]2C(=O)N1c1ccc(F)cc1 (stereo partly drawn),10.1
10,O=C1OC(Nc2ccc3c(c2)OCO3)c2ccccc21 (stereo not drawn),-2.44
11,COc1ccc(S(=O)(=O)N2CCCC(C(=O)Nc3ccc4c(c3)OCCO4)C2)cc1 (stereo not drawn),6.59
12,Cl.O=C(O)c1ccc(CNCc2cc(Cl)ccc2O)cc1,9.22
13,Cc1ccc(Oc2ncccc2NC(=O)CCCC(=O)O)c2c1CCC2,20.7
14,CCOC(=O)N1CCN(c2ccnc3cc(Cl)ccc23)CC1,-66
15,CN(c1ccccc1)S(=O)(=O)c1cccc(C(=O)NC2CC(C)(C)NC(C)(C)C2)c1,-31.3
16,CC(C(=O)Nc1ccc(F)c(F)c1F)N(C)CCOc1ccccc1 (stereo not drawn),-2.28
17,Cc1ccnc(Nc2nc(-c3ccc(O)c(O)c3)cs2)c1,1.67
18,O=C1NC2(CCSC2)C(=O)N1CC(=O)N(Cc1ccccc1)C1CCS(=O)(=O)C1 (stereo not drawn),7.27
19,O=C(O)c1ccc(-c2ncc[nH]2)cc1,15.6
20,O=C(NC1CCCC1)C1CCCN1S(=O)(=O)c1cccc2cccnc12 (stereo not drawn),-0.366
21,Nc1cc(C(=O)O)ccc1N1CCCCC1,-1.25
22,CC1(C)Cc2c(sc(NC(=O)Cc3ccccc3)c2C#N)CO1,14.5
23,CCOC(=O)C1CCN(C(=O)c2cc3cc4ccc(OC)cc4nc3o2)CC1,-8.52
24,O=C(NCCS(=O)(=O)N1CCCCCC1)c1ccc(F)cc1,1
25,O=C(CNS(=O)(=O)c1ccccc1)NCC(=O)OCc1ccc(Cl)cc1,13.7
26,COc1ccccc1C(=O)Nc1nnc(SCC(=O)NC2CCCC2)s1,23.9
27,COc1ccc(Cn2c(SCc3cc(C)ccc3C)nc3cc(OC)c(OC)cc3c2=N)cc1,-4.93
